Source: patent US10299477B2 (priority 2015, dated 2019)

Columns and labels:
Format in all cases: in vivo
[1] = test system: Blumeria graminis f sp. hordei; assay: Test Example D: Powdery mildew on barley; settings: for Test D control value (powdery mildew on barley) / Test D (control value class): 250 ppm spray; for Test D control value (powdery mildew on barley): preventive, control value class; for Test D (control value class, powdery mildew on barley): in vivo; for Test D (control value class): powdery mildew on barley; for Test D control value: Powdery mildew on barley
Excerpt: [Test Example D] Powdery Mildew on Barley
After the sprayed dilutions were dried, conidia of Blumeria graminis f sp. hordei were inoculated to the plants by shaking off.

[2] = test system: Puccinia recondita; assay: Test Example E: Brown rust on wheat; settings: for Test E control value (brown rust on wheat) / Test E (control value class): 250 ppm spray; for Test E control value (brown rust on wheat): preventive, control value class; for Test E (control value class, brown rust on wheat): in vivo; for Test E (control value class): brown rust on wheat, Puccinia recondita; for Test E control value: Brown rust on wheat
Excerpt: [Test Example E] Brown Rust on Wheat

[3] = test system: Alternaia brassicicola; assay: Test Example C: Alternaria sooty spot on cabbage; settings: for Test C control value (Alternaria sooty spot on cabbage) / Test C (control value class): 250 ppm spray; for Test C control value (Alternaria sooty spot on cabbage): preventive, control value class; for Test C (control value class, Alternaria sooty spot on cabbage): in vivo; for Test C (control value class) / Test C control value: Alternaria sooty spot on cabbage
Excerpt: [Test Example C] Alternaria Sooty Spot on Cabbage
Seeds of a test plant (cabbage variety: Shikidori) were planted followed by cultivating until the cotyledons extended.

[4] = test system: Botrytis cinerea; assay: Test Example B: Gray mold on tomato; settings: for Test B control value (gray mold on tomato) / Test B (control value class): 250 ppm spray; for Test B control value (gray mold on tomato): preventive, control value class; for Test B (control value class, gray mold on tomato): in vivo; for Test B (control value class): gray mold on tomato, Botrytis cinerea; for Test B control value: Gray mold on tomato
Excerpt: [Test Example B] Gray Mold on Tomato
Seeds of a test plant (tomato variety: Oogata Fukuju) were planted followed by cultivating until three to five first leaves (true leaves) appeared.

[5] = test system: Plasmopara viticola; assay: Test Example G: Downy mildew on vine; settings: for Test G control value (downy mildew on vine): 250 ppm spray (2.5 ml/pot), preventive, control value class; for Test G control value (downy mildew on vine) / Test G (control value class) / Test G control value: 7-10 days after inoculation; for Test G (control value class, downy mildew on vine): 250 ppm, sprayed 2.5 ml/pot before inoculation, evaluated 7-10 days after inoculation; for Test G (control value class): downy mildew on vine, Plasmopara viticola, 250 ppm spray; for Test G control value: Downy mildew on vine, 250 ppm sprayed before inoculation
Excerpt: [Test Example G] Downy Mildew on Vine
Seeds of a test plant (grape variety: Neomuscat) were planted followed by cultivating until three to four first leaves appeared. […] After the sprayed dilutions were dried, a zoosporangia suspension (1-2×10^4 zoosporangia/ml) of Plasmopara viticola was inoculated to the plants by spraying.

Compound: CCn1c(-c2c(F)cccc2F)c(-c2cc(OCSC)ccc2Cl)ccc1=O [Compound 305]
- Test D control value (powdery mildew on barley) [1]: H (H shows more than 50% of control values)
- Test E control value (brown rust on wheat) [2]: H (H shows more than 50% of control values)
- Test C control value (Alternaria sooty spot on cabbage) [3]: H (H shows more than 50% of control values)
- Test B control value (gray mold on tomato) [4]: H (H shows more than 50% of control values)
- Test G control value (downy mildew on vine) [5]: L (L shows 50% or less of control values)

Compound: CCn1c(-c2c(F)cccc2F)c(-c2ccc(OC)cc2Cl)cc(Br)c1=O [Compound 737]
- Test D (control value class, powdery mildew on barley) [1]: L (L shows 50% or less of control values)
- Test E (control value class, brown rust on wheat) [2]: H (H shows more than 50% of control values)
- Test C (control value class, Alternaria sooty spot on cabbage) [3]: H (H shows more than 50% of control values)
- Test B (control value class, gray mold on tomato) [4]: H (H shows more than 50% of control values)
- Test G (control value class, downy mildew on vine) [5]: H (H shows more than 50% of control values)

Compound: Cn1c(-c2c(F)cc(F)cc2F)c(-c2ccc(F)cc2Cl)cc(Cl)c1=O [Compound 596]
- Test D (control value class, powdery mildew on barley) [1]: H (H shows more than 50% of control values)
- Test E (control value class, brown rust on wheat) [2]: H (H shows more than 50% of control values)
- Test C (control value class, Alternaria sooty spot on cabbage) [3]: H (H shows more than 50% of control values)
- Test B (control value class, gray mold on tomato) [4]: H (H shows more than 50% of control values)
- Test G (control value class, downy mildew on vine) [5]: L (L shows 50% or less of control values)

Compound: COc1cc(F)c(-c2c(-c3cccc(F)c3F)cc(Cl)c(=O)n2C)c(F)c1 [Compound 562]
- Test D (control value class, powdery mildew on barley) [1]: H (H shows more than 50% of control values)
- Test E (control value class, brown rust on wheat) [2]: H (H shows more than 50% of control values)
- Test C (control value class, Alternaria sooty spot on cabbage) [3]: H (H shows more than 50% of control values)
- Test B (control value class, gray mold on tomato) [4]: H (H shows more than 50% of control values)
- Test G (control value class, downy mildew on vine) [5]: L (L shows 50% or less of control values)

Compound: CCn1c(-c2c(F)cccc2F)c(-c2cccc(C)c2)ccc1=O [Compound 219]
- Test D control value (powdery mildew on barley) [1]: H (H shows more than 50% of control values)
- Test E control value (brown rust on wheat) [2]: H (H shows more than 50% of control values)
- Test C control value (Alternaria sooty spot on cabbage) [3]: H (H shows more than 50% of control values)
- Test B control value (gray mold on tomato) [4]: H (H shows more than 50% of control values)
- Test G control value (downy mildew on vine) [5]: L (L shows 50% or less of control values)

Compound: CCOc1cc(F)c(-c2c(-c3cccc(OC)c3Cl)cc(C)c(=O)n2CC)c(F)c1 [Compound 645]
- Test D (control value class, powdery mildew on barley) [1]: H (H shows more than 50% of control values)
- Test E (control value class, brown rust on wheat) [2]: H (H shows more than 50% of control values)
- Test C (control value class, Alternaria sooty spot on cabbage) [3]: H (H shows more than 50% of control values)
- Test B (control value class, gray mold on tomato) [4]: H (H shows more than 50% of control values)
- Test G (control value class, downy mildew on vine) [5]: H (H shows more than 50% of control values)

Compound: COc1cc(OC)c(Cl)c(-c2ccc(=O)n(C)c2-c2c(F)cc(O)cc2F)c1 [Compound 249]
- Test D control value (powdery mildew on barley) [1]: L (L shows 50% or less of control values)
- Test E control value (brown rust on wheat) [2]: H (H shows more than 50% of control values)
- Test C control value (Alternaria sooty spot on cabbage) [3]: H (H shows more than 50% of control values)
- Test B control value (gray mold on tomato) [4]: H (H shows more than 50% of control values)
- Test G control value (downy mildew on vine) [5]: L (L shows 50% or less of control values)

Compound: Cn1c(-c2c(F)cccc2F)c(-c2cc(F)ccc2Cl)cc(F)c1=O [Compound 513]
- Test D (control value class) [1]: H (H shows more than 50% of control values)
- Test E (control value class) [2]: H (H shows more than 50% of control values)
- Test C (control value class) [3]: H (H shows more than 50% of control values)
- Test B (control value class) [4]: H (H shows more than 50% of control values)
- Test G (control value class) [5]: H (H shows more than 50% of control values)

Compound: Cn1c(-c2c(F)cc(F)cc2F)c(-c2ccccc2Cl)cc(Cl)c1=O [Compound 432]
- Test D (control value class) [1]: H (H shows more than 50% of control values)
- Test E (control value class) [2]: H (H shows more than 50% of control values)
- Test C (control value class) [3]: H (H shows more than 50% of control values)
- Test B (control value class) [4]: H (H shows more than 50% of control values)
- Test G (control value class) [5]: H (H shows more than 50% of control values)

Compound: Cc1cc(-c2cc(F)cc(F)c2F)c(-c2c(F)cccc2F)n(C)c1=O [Compound 457]
- Test D (control value class) [1]: H (H shows more than 50% of control values)
- Test E (control value class) [2]: H (H shows more than 50% of control values)
- Test C (control value class) [3]: H (H shows more than 50% of control values)
- Test B (control value class) [4]: H (H shows more than 50% of control values)
- Test G (control value class) [5]: H (H shows more than 50% of control values)

Compound: CCCCCOc1ccc(Cl)c(-c2ccc(=O)n(CC)c2-c2c(F)cccc2F)c1 [Compound 254]
- Test D control value (powdery mildew on barley) [1]: H (H shows more than 50% of control values)
- Test E control value (brown rust on wheat) [2]: L (L shows 50% or less of control values)
- Test C control value (Alternaria sooty spot on cabbage) [3]: H (H shows more than 50% of control values)
- Test B control value (gray mold on tomato) [4]: L (L shows 50% or less of control values)
- Test G control value (downy mildew on vine) [5]: H (H shows more than 50% of control values)

Compound: COc1ccc(Cl)c(-c2ccc(=O)n(C#N)c2-c2c(F)cccc2F)c1 [Compound 719]
- Test D (control value class, powdery mildew on barley) [1]: H (H shows more than 50% of control values)
- Test E (control value class, brown rust on wheat) [2]: H (H shows more than 50% of control values)
- Test C (control value class, Alternaria sooty spot on cabbage) [3]: H (H shows more than 50% of control values)
- Test B (control value class, gray mold on tomato) [4]: H (H shows more than 50% of control values)
- Test G (control value class, downy mildew on vine) [5]: H (H shows more than 50% of control values)

Compound: CCn1c(-c2c(F)cccc2Br)c(-c2cc(OC)cc(OC)c2)ccc1=O [Compound 175]
- Test D control value [1]: L (L shows 50% or less of control values)
- Test E control value [2]: L (L shows 50% or less of control values)
- Test C control value [3]: L (L shows 50% or less of control values)
- Test B control value [4]: H (H shows more than 50% of control values)
- Test G control value [5]: L (L shows 50% or less of control values)

Compound: COc1cc(OC)cc(C2=C(c3c(F)cccc3Cl)N(C)C(=O)CC2)c1 [Compound 163]
- Test D control value [1]: L (L shows 50% or less of control values)
- Test E control value [2]: H (H shows more than 50% of control values)
- Test C control value [3]: L (L shows 50% or less of control values)
- Test B control value [4]: H (H shows more than 50% of control values)
- Test G control value [5]: H (H shows more than 50% of control values)

Compound: Cn1c(-c2c(F)cc(F)cc2F)c(-c2cccc(F)c2Cl)cc(Br)c1=O [Compound 503]
- Test D (control value class) [1]: H (H shows more than 50% of control values)
- Test E (control value class) [2]: H (H shows more than 50% of control values)
- Test C (control value class) [3]: H (H shows more than 50% of control values)
- Test B (control value class) [4]: H (H shows more than 50% of control values)
- Test G (control value class) [5]: H (H shows more than 50% of control values)

Compound: Cn1c(-c2c(F)cc(F)cc2F)c(-c2ccc(F)cc2Cl)ccc1=O [Compound 576]
- Test D (control value class, powdery mildew on barley) [1]: H (H shows more than 50% of control values)
- Test E (control value class, brown rust on wheat) [2]: H (H shows more than 50% of control values)
- Test C (control value class, Alternaria sooty spot on cabbage) [3]: H (H shows more than 50% of control values)
- Test B (control value class, gray mold on tomato) [4]: H (H shows more than 50% of control values)
- Test G (control value class, downy mildew on vine) [5]: H (H shows more than 50% of control values)

Compound: Cn1c(-c2c(F)cccc2F)c(-c2cc(Cl)ccc2F)ccc1=O [Compound 524]
- Test D (control value class) [1]: L (L shows 50% or less of control values)
- Test E (control value class) [2]: H (H shows more than 50% of control values)
- Test C (control value class) [3]: H (H shows more than 50% of control values)
- Test B (control value class) [4]: H (H shows more than 50% of control values)
- Test G (control value class) [5]: L (L shows 50% or less of control values)
